# Experimental data published in PubChem BioAssay (NCATS).
# Where “and” joins values, the source holds several entries; their conditions need not be identical. Equal values may be shown once. For some of these results: “Side channel” marks fits to a control or component signal instead of the main read-out. Calls of active or inactive are those of the source. Unless noted, calls come from the whole dose curve; as a rule, active = well fitted curve in the direction sought with a large enough effect; inconclusive = small, poorly fitted or top-dose-only effect, or another doubt; inactive = no such curve, though single readings can be large; an effect the other way counts as inactive or inconclusive.
# Legend:
# [1] = Cell Viability - LYMP2-017 (AID 972);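 note: potency is the fitted concentration of half-maximal effect; cells exposed to compound for 24 hours at 37 °C; nearly all actives have a fitted effect of over 55% in size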
# Procedure, shortened: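 Cytotoxicity is scored as a concentration-dependent drop in cellular ATP in a human lymphoblastoid line after 24 hr treatment at 37 C. Values are AC50s from Hill-equation modelling.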
# [2] = Cell Viability - LYMP2-021 (AID 974);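 note: potency is the fitted concentration of half-maximal effect; compound exposure lasts 24 hours at 37 °C; nearly all actives have a fitted effect of over 55% in size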
# Procedure, shortened: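 Loss of cellular ATP, measured with a luciferase-based CellTiter-Glo readout, serves as the toxicity signal in human lymphoblastoid cells treated for 24 hours at 37 C. Potency is reported as AC50 from a standard Hill model.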
# [3] = Cell Viability - LYMP2-002 (AID 977); conditions: LYMP2-002 lymphoblastoid cell viability, qHTS; activity change, negative = cytotoxic: at 92.2 µM (top of the series);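 note: potency is the fitted concentration of half-maximal effect; compound exposure lasted 24 h at 37 °C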
# Procedure, shortened: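 In this qHTS viability screen, 2500 human lymphoblastoid cells per well receive compound for 24 hr at 37 C, and luciferase-based ATP luminescence gives the viability signal. Tetraoctylammonium bromide serves as positive control.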
# [4] = Cell Viability - LYMP2-008 (AID 980); conditions: LYMP2-008 lymphoblastoid cell viability, qHTS; note: potency is the fitted concentration of half-maximal effect; nearly all actives have a fitted effect of over 60% in size
# Procedure, shortened: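 Cells seeded at 2500/well and rested 5 hr at 37 C; compounds added over a concentration range and incubated 24 hr at 37 C; CellTiter-Glo added, 30 min at room temperature; luminescence read and AC50 fitted with Hill model.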
# [5] = Cell Viability - LYMP2-010 (AID 981);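 note: potency is the fitted concentration of half-maximal effect; cells exposed to compound for 24 hours at 37 °C; nearly all actives have a fitted effect of over 55% in size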
# Procedure, shortened: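 Steps: seed 2500 LYMP2-010 cells per well; incubate 5 hr at 37 C; add compound; incubate 24 hr at 37 C; add CellTiter-Glo, wait 30 min at room temperature; read luminescence. Concentration-response fitted to Hill equation for AC50.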
# [6] = Cell Viability - LYMP2-020 (AID 986); conditions: activity change, negative = viability loss: at 92.2 µM (top of the series);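 note: potency is the fitted concentration of half-maximal effect; cells exposed to compound for 24 h at 37 °C; nearly all actives have a fitted effect of over 55% in size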
# Procedure, shortened: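 Seed 2500 cells per well and incubate 5 hr at 37 C. Add compounds at a concentration series and incubate 24 hr at 37 C. Add CellTiter-Glo, wait 30 min at RT, read luminescence, and fit a Hill curve for AC50.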
# [7] = Cell Viability - LYMP2-026 (AID 989);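 note: potency is the fitted concentration of half-maximal effect; cells exposed to compound for 24 h at 37 °C; nearly all actives have a fitted effect of over 50% in size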
# Procedure, shortened: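 Cells are seeded at 2500 per well and held 5 hr at 37 C. Compounds are added in concentration series for 24 hr, then CellTiter-Glo reagent is applied and luminescence read.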
# [8] = Cell Viability - LYMP1-002 - Assay at 40 hr (AID 994); note: potency is the fitted concentration of half-maximal effect; nearly all actives have a fitted effect of over 60% in size
# Procedure, shortened: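 Cells are plated at 2500 per well and rested 5 hr at 37 C. Compounds are added and incubated 40 hr at 37 C. CellTiter-Glo reagent is added for 30 min at room temperature before luminescence is read.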
# [9] = qHTS Assay for Identification of Small Molecule Inducers of Hypoxia Response (AID 2120; active = well fitted curve in the direction sought with a large enough effect in the signal ratio, with a control signal flat, not every such curve was filed as active; inconclusive = small, poorly fitted or top-dose-only effect, or a change in a side signal; inactive = no such curve, though single readings can be large or run the other way; the % refers to the signal ratio; note: potency is the fitted concentration of half-maximal effect); conditions: hypoxia response reporter cells, beta-lactamase ratio readout; activation: at 104 µM (top of the series)
# Procedure, shortened: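 Cell-based qHTS for reporter induction: hypoxia response element controlled beta-lactamase in ME-180 cells. Compounds incubated 17 h at 37 degrees C; activity from blue/green (460/530 nm) ratio, inducers ranked by AC50.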
# [10] = target: Estrogen receptor (Homo sapiens) (UniProt P03372); assay: qHTS assay for small molecule antagonists of estrogen receptor alpha signaling (AID 588513; active = well fitted curve in the direction sought with a large enough effect in the signal ratio, with a control signal flat, not every such curve was filed as active; inconclusive = small, poorly fitted or top-dose-only effect, or effect the other way, or a change in a side signal; inactive = no such curve, though single readings can be large or run the other way; the % refers to the signal ratio; note: potency is the fitted concentration of half-maximal effect); conditions: ER-alpha-UAS-bla HEK293, beta-lactamase ratio, antagonist mode; activity, negative = inhibition: at 76.9 µM (top of the series) unless noted
# Sequence of UniProt P03372 (P03372 whole entry, looked up): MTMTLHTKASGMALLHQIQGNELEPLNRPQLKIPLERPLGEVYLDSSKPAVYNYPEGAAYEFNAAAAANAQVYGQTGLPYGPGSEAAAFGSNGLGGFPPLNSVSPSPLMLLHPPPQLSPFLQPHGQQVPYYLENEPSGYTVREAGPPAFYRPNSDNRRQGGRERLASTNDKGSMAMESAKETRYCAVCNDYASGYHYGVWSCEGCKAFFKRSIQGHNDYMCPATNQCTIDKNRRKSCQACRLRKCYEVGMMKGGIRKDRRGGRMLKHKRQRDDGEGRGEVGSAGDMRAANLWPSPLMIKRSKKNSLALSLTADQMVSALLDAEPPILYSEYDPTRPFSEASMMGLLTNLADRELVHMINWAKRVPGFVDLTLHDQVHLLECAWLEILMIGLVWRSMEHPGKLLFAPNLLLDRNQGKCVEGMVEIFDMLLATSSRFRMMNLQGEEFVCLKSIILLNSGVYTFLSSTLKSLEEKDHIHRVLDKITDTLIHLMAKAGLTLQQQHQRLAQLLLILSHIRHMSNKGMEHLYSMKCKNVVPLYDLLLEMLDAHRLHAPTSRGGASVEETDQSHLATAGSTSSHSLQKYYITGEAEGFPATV
# Procedure, shortened: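 Antagonist mode: inhibition of 0.5 nM 17-beta-estradiol-driven beta-lactamase reporter in HEK 293 ER-alpha-UAS-bla cells, 18 h at 37C, CCF4 readout after 2 h at RT. Normalised to estradiol and DMSO; titration fitted to Hill.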
# [11] = target: Bile acid receptor (Homo sapiens) (UniProt Q96RI1); assay: qHTS assay for small molecule agonists of farnesoid X receptor signaling (AID 588527; calls by dose curve; note: potency is the fitted concentration of half-maximal effect); conditions: HEK293T FXR-UAS-bla, beta-lactamase ratio, 16 h; activation: stronger effect = higher value
# Procedure, shortened: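 Agonist-mode beta-lactamase reporter in GeneBLAzer FXR-UAS-bla HEK293T cells, titration up to 92 uM, 16 h exposure at 37 C, CCF4 fluorescence. Response scaled to DMSO (0%) and 100 uM chenodeoxycholic acid (100%), then Hill-fitted for EC50 and efficacy.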
# [12] = target: Glucocorticoid receptor (Homo sapiens) (UniProt P04150); assay: qHTS assay for small molecule antagonists of glucocorticoid receptor signaling (AID 588533; active = well fitted inhibition curve with a large enough effect in the signal ratio, with a control signal flat, not every such curve was filed as active; inconclusive = small, poorly fitted or top-dose-only effect, or effect the other way, or a change in a side signal; the % refers to the signal ratio;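 note: cells stimulated with 2 nM dexamethasone as agonist; potency is the fitted concentration of half-maximal effect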); conditions: HeLa MMTV-bla, GRE beta-lactamase ratio, antagonist mode, 18 h; activity change, negative = inhibition: at 76.8 µM (top of the series)
# Sequence of UniProt P04150 (P04150 whole entry, looked up): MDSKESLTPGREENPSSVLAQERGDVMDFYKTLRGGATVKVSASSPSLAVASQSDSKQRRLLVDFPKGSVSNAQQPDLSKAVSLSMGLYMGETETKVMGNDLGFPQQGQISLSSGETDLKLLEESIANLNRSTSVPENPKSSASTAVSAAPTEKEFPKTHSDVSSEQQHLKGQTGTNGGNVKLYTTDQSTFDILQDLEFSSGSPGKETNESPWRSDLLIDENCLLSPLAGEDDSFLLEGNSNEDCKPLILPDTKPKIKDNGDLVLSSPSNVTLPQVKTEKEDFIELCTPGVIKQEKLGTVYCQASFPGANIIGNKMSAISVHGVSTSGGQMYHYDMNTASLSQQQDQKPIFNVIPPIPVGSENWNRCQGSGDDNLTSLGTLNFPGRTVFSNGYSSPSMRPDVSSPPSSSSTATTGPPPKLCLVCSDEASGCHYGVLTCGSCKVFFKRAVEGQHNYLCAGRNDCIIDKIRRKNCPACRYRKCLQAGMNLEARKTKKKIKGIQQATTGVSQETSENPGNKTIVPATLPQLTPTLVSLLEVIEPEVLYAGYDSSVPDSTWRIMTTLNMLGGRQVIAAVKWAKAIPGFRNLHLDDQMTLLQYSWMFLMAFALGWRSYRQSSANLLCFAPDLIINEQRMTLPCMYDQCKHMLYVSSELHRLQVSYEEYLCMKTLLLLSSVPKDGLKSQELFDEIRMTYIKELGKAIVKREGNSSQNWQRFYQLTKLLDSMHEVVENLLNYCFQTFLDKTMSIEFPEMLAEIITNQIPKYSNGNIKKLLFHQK
# [13] = target: Peroxisome proliferator-activated receptor gamma (Homo sapiens) (UniProt P37231); assay: qHTS assay for small molecule antagonists of peroxisome proliferator-activated receptor gamma signaling (AID 588537; active = well fitted inhibition curve with a large enough effect in the signal ratio, with a control signal flat, not every such curve was filed as active; inconclusive = small, poorly fitted or top-dose-only effect, or effect the other way, or a change in a side signal; the % refers to the signal ratio;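 note: reporter cells co-stimulated with 50 nM rosiglitazone agonist during compound treatment; potency is the fitted concentration of half-maximal effect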); conditions: HEK293 PPARg-UAS-bla, beta-lactamase ratio, antagonist mode; activity, negative = inhibition: at 76.8 µM (top of the series)
# Procedure, shortened: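 Compounds are tested as concentration series for inhibition of rosiglitazone-driven (50 nM) reporter expression in GeneBLAzer PPAR-gamma-UAS-bla HEK293 cells. After 16 h at 37 C, CCF4 substrate is added for 2 h at room temperature and blue/green fluorescence is measured.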
# [14] = target: Vitamin D3 receptor (Homo sapiens) (UniProt P11473); assay: qHTS assay for small molecule antagonists of vitamin D receptor signaling (AID 588541; calls by dose curve; note: potency is the fitted concentration of half-maximal effect); conditions: HEK293T VDR-UAS-bla, beta-lactamase ratio, antagonist mode; activity change, negative = inhibition: at 76.7 µM (top of the series)
# [15] = target: Vitamin D3 receptor (Homo sapiens) (UniProt P11473); assay: qHTS assay for small molecule agonists of vitamin D receptor signaling (AID 588543; calls by dose curve; note: potency is the fitted concentration of half-maximal effect); conditions: HEK293T VDR-UAS-bla, beta-lactamase ratio, 16 h; activation: at 76.8 µM (top of the series)
# Procedure, shortened: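 Agonist-mode beta-lactamase reporter: HEK293T VDR-UAS-bla cells in charcoal-stripped 2% FBS, compound series 16 h 37 C, CCF4 2 h RT. EC50 from Hill fit, scaled against DMSO and 50 nM calcitriol control.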
# [16] = target: Retinoic acid receptor RXR-alpha (Homo sapiens) (UniProt P19793); assay: qHTS assay for small molecule antagonists of retinoid X receptor alpha signaling (AID 588546; active = well fitted inhibition curve with a large enough effect in the signal ratio, with a control signal flat, not every such curve was filed as active; inconclusive = small, poorly fitted or top-dose-only effect, or effect the other way, or a change in a side signal; inactive = no such curve, though single readings can be large or run the other way; the % refers to the signal ratio; note: potency is the fitted concentration of half-maximal effect); conditions: HEK293T RXRa-UAS-bla, beta-lactamase ratio, antagonist mode
# Sequence of UniProt P19793 (P19793 whole entry, looked up): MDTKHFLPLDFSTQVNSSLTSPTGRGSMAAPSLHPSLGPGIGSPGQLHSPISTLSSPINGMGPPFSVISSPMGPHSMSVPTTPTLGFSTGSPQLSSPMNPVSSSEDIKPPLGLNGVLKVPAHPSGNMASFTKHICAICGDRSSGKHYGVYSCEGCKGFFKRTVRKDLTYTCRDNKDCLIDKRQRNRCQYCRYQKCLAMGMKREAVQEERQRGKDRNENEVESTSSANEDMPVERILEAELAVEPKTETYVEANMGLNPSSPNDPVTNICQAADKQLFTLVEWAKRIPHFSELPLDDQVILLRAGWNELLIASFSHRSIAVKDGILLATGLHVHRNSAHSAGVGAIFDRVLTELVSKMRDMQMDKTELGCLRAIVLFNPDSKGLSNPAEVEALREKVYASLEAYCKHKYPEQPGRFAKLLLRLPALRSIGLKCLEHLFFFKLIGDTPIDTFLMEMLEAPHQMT
# Procedure, shortened: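 Beta-lactamase reporter inhibition, read as CCF4 fluorescence ratio (ex 405, em 460/530 nm) after 2 h at RT. HEK293T UAS-bla cells, 2500/well, were stimulated with 9-cis-RA at 500 or 100 nM final alongside test compound for 18 h at 37 C.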
# [17] = target: Thyroid hormone receptor beta (Homo sapiens) (UniProt P10828); assay: qHTS assay for small molecule antagonists of thyroid hormone receptor beta signaling (AID 588547; active = well fitted inhibition curve with a large enough effect in the signal ratio, with a control signal flat, not every such curve was filed as active; inconclusive = small, poorly fitted or top-dose-only effect, or effect the other way, or a change in a side signal; the % refers to the signal ratio; note: potency is the fitted concentration of half-maximal effect); conditions: TR-UAS-bla HEK293, beta-lactamase ratio, antagonist mode, 18 h
# Sequence of UniProt P10828 (P10828 whole entry, looked up): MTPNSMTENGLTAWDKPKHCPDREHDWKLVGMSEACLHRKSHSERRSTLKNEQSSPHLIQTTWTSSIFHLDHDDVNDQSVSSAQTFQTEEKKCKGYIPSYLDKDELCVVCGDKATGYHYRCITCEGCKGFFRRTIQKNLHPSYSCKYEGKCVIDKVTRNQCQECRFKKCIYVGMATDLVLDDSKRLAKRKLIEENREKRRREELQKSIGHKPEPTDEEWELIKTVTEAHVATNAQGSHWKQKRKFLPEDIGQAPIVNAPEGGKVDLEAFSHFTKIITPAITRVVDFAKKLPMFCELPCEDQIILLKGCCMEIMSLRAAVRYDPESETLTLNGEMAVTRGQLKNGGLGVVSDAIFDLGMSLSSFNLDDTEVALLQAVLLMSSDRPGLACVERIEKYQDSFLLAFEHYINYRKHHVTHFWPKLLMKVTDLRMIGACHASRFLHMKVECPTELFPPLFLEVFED
# Procedure, shortened: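 TR-UAS-bla GripTite HEK293 cells in 2% charcoal/dextran FBS medium were preincubated 4 h at 37 C, given compound (0.59 nM to 92 uM) plus 0.4 nM T3 (final) for 18 h, then CCF4 for 2 h at RT; Hill fit gave IC50.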
# [18] = qHTS assay for small molecule disruptors of the mitochondrial membrane potential - 1 hr assay (AID 651754; calls by dose curve; note: % is set by controls: 0 for no effect and ±100 for the full control effect; nearly all actives have a fitted effect of over 35% in size); conditions: ratio change, negative = depolarisation: at 92.2 µM (top of the series)
# Procedure, shortened: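 Loss of mitochondrial potential shifts the cationic dye from red mitochondrial aggregates to green cytoplasmic monomers. Cells (HepG2) are treated with compound for 1 hr before a 30 min dye incubation at 37C.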
# [19] = target: Tumor necrosis factor (Homo sapiens) (UniProt P01375); assay: qHTS assay to identify small molecules that stimulate Tumor Necrosis Factor-alpha (TNF-alpha) secretion (AID 651757; active = well fitted curve in the direction sought with a large enough effect in the signal ratio; inconclusive = small, poorly fitted or top-dose-only effect, or a change in a side signal; inactive = no such curve, though single readings can be large or run the other way; the % refers to the signal ratio; note: 0% is about no effect); conditions: Human cells, HTRF 665/615 ratio; activation (TNF-alpha secretion): at 92.2 µM (top of the series)
# Sequence of UniProt P01375 (P01375 whole entry, looked up): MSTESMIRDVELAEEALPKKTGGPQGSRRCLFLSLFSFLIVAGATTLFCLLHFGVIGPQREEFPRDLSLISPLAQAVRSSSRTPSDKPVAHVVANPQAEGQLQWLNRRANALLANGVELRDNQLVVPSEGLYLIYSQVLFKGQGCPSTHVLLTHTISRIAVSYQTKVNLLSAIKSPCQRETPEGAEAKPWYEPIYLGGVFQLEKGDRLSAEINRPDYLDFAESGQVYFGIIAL
# Procedure, shortened: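 Human monocytic THP-1 cells are plated, treated with compound and held at 37 C for 17 hrs. Labeled anti-TNF-alpha antibody mixture is then added; after 3 hr at room temperature, TR-FRET signal reports secreted TNF-alpha.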
# [20] = qHTS assay to identify small molecules that stimulate interleukin-8 (IL-8) secretion (AID 651758; active = well fitted activation curve with a large enough effect in the signal ratio; inconclusive = small, poorly fitted or top-dose-only effect, or effect the other way, or a change in a side signal; the % refers to the signal ratio; note: potency is the fitted concentration of half-maximal effect); conditions: HTRF ratio (665/615); activation: at 92.2 µM (top of the series)
# Procedure, shortened: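 Quantitative HTS in THP-1 monocytic cells at 2000 cells per well, with 16 hrs compound incubation at 37 C. IL-8 in the medium was then quantified by HTRF immunoassay, read after 1-3 hrs at room temperature.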
# [21] = qHTS assay for small molecule antagonists of the retinoid-related orphan receptor gamma (ROR-gamma) signaling pathway - cell viability counter screen (AID 720652; active = well fitted curve in the direction sought with a large enough effect in the repeat runs; inconclusive = weak or mixed curves; inactive = no such curve, though single readings can be large; an effect the other way counts as inactive or inconclusive;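 note: potency is the fitted concentration of half-maximal effect; compound exposure lasted 16 hr before ATP read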)
# Procedure, shortened: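 Steps: seed CHO cells bearing TET-inducible ROR and ROR response element-luciferase; rest 5 hr at 37 C; add compound, then doxycycline; incubate 16 hr; add CellTiter-Glo and read luminescence as ATP-based viability.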
# [22] = qHTS assay for cell viability of HEK293 cells (AID 743288); conditions: ATP luminescence (CellTiter-Glo), 18 h; max response: stronger effect = lower value; note: potency is the fitted concentration of half-maximal effect; nearly all actives have a fitted effect of over 50% in size
# Procedure, shortened: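 Readout is luciferase-coupled ATP content (CellTiter-Glo luminescence, 30 min room temperature) as a measure of metabolically competent cells. Parental HEK293 cells were plated 5 h or more before compound addition, then treated 18 h at 37 C.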
# Tags give direction and shape of the fitted curve or compound fluorescence and quenching.
structure (smiles),measurement,setting,value
CCC(C)Nc1ccc(NC(C)CC)cc1 (configuration not stated),Potency,[1],active: 3.98 µM
same,Potency,[2],active: 3.98 µM
same,Potency,[3],active: 3.98 µM
same,Potency,[4],active: 3.98 µM
same,Potency,[5],active: 3.16 µM
same,Potency,[6],active: 5.01 µM
same,Potency,[7],active: 7.94 µM
same,Potency,[8],active: 15.8 µM
same,Potency,[9],"inconclusive: 25.1 µM [side channel, falling, full curve]"
same,Potency,[10],active: 6.31 µM [inconclusive]
same,Potency,[11],"inconclusive: 35.5 µM [side channel, rising, partial curve, poor fit]"
same,Potency,[12],active: 35.5 µM
same,Potency,[13],"inconclusive: 25.1 µM [side channel, rising, full curve]"
same,Potency,[14],active: 6.31 µM
same,Potency,[15],"inconclusive: 50.1 µM [rising, single point]"
same,Potency,[16],active: 28.2 µM
same,Potency,[17],"inconclusive: 44.7 µM [side channel, rising, partial curve, poor fit] and inconclusive: 25.1 µM [side channel, rising, partial curve, poor fit]"
same,"ratio change, negative = depolarisation",[18],inconclusive: -24.2%
same,activation (TNF-alpha secretion),[19],inconclusive: 1.3%
same,Potency,[20],"inconclusive: 66.8 µM [inhibitor, single point]"
same,Potency,[21],active: 8.41 µM
same,Potency,[22],"inconclusive: 56.2 µM [cytotoxic, single point] and active: 28.2 µM"
